Data taken from PubChem BioAssay AID1477 (National Center for Advancing Translational Sciences (NCATS), 2009).
Out of some 230,000 compounds screened, fewer than 10 were called active. Inconclusive means that the source gave no clear call. Such entries were picked first, then a sample of the others. The call rests on the fitted dose curve; in most records, active means well fitted curve in the direction sought with a large enough effect; inconclusive means small, poorly fitted or top-dose-only effect, or effect the other way, or another doubt; inactive means no such curve, though single readings can be large or run the other way. No potency is given beside an inconclusive call; the fits are too rough.

Each compound was assayed against Runt-related transcription factor 1 (Homo sapiens) + Core-binding factor subunit beta (Homo sapiens) (UniProt Q01196+Q13951) (assay: qHTS Assay for Compounds Blocking the Interaction Between CBF-beta and RUNX1 for the Treatment of Acute Myeloid Leukemia). Settings: AlphaScreen CBFb-His/RUNX1-biotin binding, biochemical; activity, negative = inhibition: at 59.8 µM (top of the series) unless noted.
Chain of UniProt Q01196 (Q01196 whole entry, looked up): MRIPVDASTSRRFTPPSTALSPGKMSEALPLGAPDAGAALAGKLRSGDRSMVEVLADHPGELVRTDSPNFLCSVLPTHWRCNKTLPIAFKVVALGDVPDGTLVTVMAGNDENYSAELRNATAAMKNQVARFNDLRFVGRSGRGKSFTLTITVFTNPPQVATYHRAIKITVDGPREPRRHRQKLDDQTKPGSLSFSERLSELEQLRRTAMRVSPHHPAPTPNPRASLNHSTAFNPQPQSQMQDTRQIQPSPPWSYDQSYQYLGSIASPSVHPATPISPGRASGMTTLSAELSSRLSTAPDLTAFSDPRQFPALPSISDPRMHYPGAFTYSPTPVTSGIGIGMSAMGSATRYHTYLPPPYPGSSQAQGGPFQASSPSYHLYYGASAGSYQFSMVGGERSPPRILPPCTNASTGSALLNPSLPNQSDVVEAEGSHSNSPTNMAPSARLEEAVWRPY
Chain of UniProt Q01196 (Q13951 whole entry, looked up): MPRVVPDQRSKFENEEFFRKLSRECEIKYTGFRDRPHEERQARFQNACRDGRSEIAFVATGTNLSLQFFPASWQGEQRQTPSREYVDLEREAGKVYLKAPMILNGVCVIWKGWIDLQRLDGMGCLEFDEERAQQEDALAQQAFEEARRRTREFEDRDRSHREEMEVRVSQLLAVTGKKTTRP
In short: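 Proteins preincubated together for 20 min at RT before compound addition; 15 min later, nickel and streptavidin beads were added and left 90 min prior to AlphaScreen measurement.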
Wherever activity, negative = inhibition is given: % of control where 0% means no effect.

SMILES	Potency	activity, negative = inhibition
Cc1ccc(S(=O)(=O)N(C)CC(=O)O/N=C(\N)c2cccc([N+](=O)[O-])c2)cc1	inconclusive [inhibitor, partial curve]	–
CCC1CSC(Nc2ccc(C(=O)/C=C/c3ccc(OC)c(OC)c3)cc2)=N1 (stereo not drawn)	inactive	–
CCCCc1nc2c(c3c1C[C@H](C)OC3)CN(S(=O)(=O)c1ccc(C#N)cc1)CC2	–	inactive: -0.373% [at 13.1 µM]
COC(=O)C1C[C@@H]2C3=C(C(=O)[C@@](C)(NC(=O)c4ccccc4)C3[C@H](C(=O)OC)C1)[C@H](C)n1c(=O)n(-c3ccccc3)c(=O)n12 (stereo partly drawn)	inactive	–
CCCCCCCCCC(=O)O[C@H](CC(=O)O)C[N+](C)(C)C	inconclusive [activator, full curve]	–
CCOc1cccc(=O)c2c(C)n(C)c(C)c12	inconclusive [inhibitor, single point]	–
COc1ccccc1CC1(C)NC(=O)N(CC(=O)N2CCc3ccccc3C2)C1=O (stereo not drawn)	inconclusive [inhibitor, single point]	–
C=CCn1c(-c2ccc(Cl)cc2)cnc1SC(C)C(N)=O (stereo not drawn)	inactive	–
CCn1c(-c2csc(-c3ccccc3)n2)n[nH]c1=S	inactive	–
COc1cc([N+](=O)[O-])cc(/C=N/NC(=O)c2ccc(C)nc2)c1O	inconclusive [inhibitor, full curve, poor fit]	–
NS(=O)(=O)c1ccc(CNC(=O)Cc2c(F)cccc2Cl)cc1	inactive	–
CC1=C(c2ccccc2)[N+](=O)C2(CCCCC2)N1[O-]	inconclusive [inhibitor, single point]	–
CN1OC[C@@H]2COc3ccc4ccccc4c3[C@@H]21	inconclusive [inhibitor, single point]	–
Cc1c(C(=O)N(Cc2ccc(N(C)C)cc2)C2CCS(=O)(=O)C2)oc2ccccc12 (stereo not drawn)	inconclusive [inhibitor, single point]	–
O=C(N/N=C/c1cc2ccccc2nc1Cl)/C(=C/c1cccs1)NC(=O)c1ccccc1	inconclusive [inhibitor, single point]	–
CCN(CC)c1ccc(NC(=O)/C=C/c2cc(Br)ccc2OC)cc1	inconclusive [inhibitor, partial curve]	–
Cc1ccc(NC(=O)CSc2nc(C)c(Cc3ccccc3)c(=O)[nH]2)cc1C	inactive	–
CCN(CC)C(=O)c1sc2[nH]c(=S)n(-c3ccccc3)c(=O)c2c1C	inactive	–
CC(C)Cn1c2c(c(O)c(C(=O)Nc3nccs3)c1=O)CCCC2	inactive	–
Cc1ccccc1-n1c(O)c(/C=N/c2nccs2)c(=O)[nH]c1=O	inconclusive [inhibitor, single point]	–
NC(=O)c1nsnc1-c1ccccc1O	inconclusive [activator, partial curve, poor fit]	–
COc1ccc(NC(=O)N(CCC(C)C)C(C)c2ccccn2)c(OC)c1 (stereo not drawn)	inactive	–
Brc1ccc(OCc2ccccc2)c(CNCc2ccncc2)c1	inconclusive [activator, single point]	–

SMILES	Potency	activity, negative = inhibition
CCCCC(=O)N/N=C/c1c(O)n(CCCC)c(=S)[nH]c1=O	inconclusive [inhibitor, partial curve]	–
CCCCNc1c([N+](=O)[O-])cc(C)cc1[N+](=O)[O-]	inconclusive [inhibitor, partial curve]	–
COc1cc(/C=C2\SC(=O)N(Cc3ccc(Cl)cc3)C2=O)cc([N+](=O)[O-])c1O	inconclusive [inhibitor, partial curve]	–
CCOC(=O)c1c(C)[nH]c(C)c1C(=O)COc1ncnc2cc([N+](=O)[O-])ccc12	inconclusive [inhibitor, single point]	–
COc1ccccc1-c1nc(C#N)c(N2CCC(Cc3ccccc3)CC2)o1	inconclusive [inhibitor, full curve, poor fit]	–
COc1ccc(/C=N/NC(=O)c2ccc(F)cc2)cc1CN1CCc2cc(OC)c(OC)cc2C1C (stereo not drawn)	inconclusive [inhibitor, single point]	–
Cc1ccc(C)c2[nH]c(=O)c(CN(Cc3ccco3)C(=O)Nc3ccccc3)cc12	inconclusive [inhibitor, single point]	–
CCCCSc1nc(C)cc(C)c1S(=O)(=O)c1ccccc1C	inconclusive [activator, single point]	–
CN(c1ccccc1)S(=O)(=O)c1ccc(Cl)c(C(=O)OCC(=O)NCc2ccco2)c1	inconclusive [inhibitor, single point]	–
CCOC(=O)N1CCN(S(=O)(=O)c2ccc(C(=O)NNc3nc4c(C)cccc4s3)cc2)CC1	–	inactive: 6.14% [at 2.36 µM]
CCCC(=O)NC(c1ccco1)c1cc([N+](=O)[O-])c2cccnc2c1O (stereo not drawn)	inconclusive [inhibitor, full curve]	–
Cc1ccc2nc(NC(=O)COC(=O)c3ccccn3)sc2c1	inconclusive [inhibitor, partial curve]	–
COc1ccc(S(=O)(=O)N(Cc2ccccc2)Cc2nc(-c3ccccc3)no2)cc1	inconclusive [activator, single point]	–
CC(=O)Nc1ccc(Nc2ncnc3c2cnn3-c2ccc(C)cc2C)cc1	inactive	–
COc1ccc(CCNC(=O)CSc2nnnn2-c2ccccc2OC)cc1OC	inactive	–
CCOc1cccc(OCCOc2ccc(C(=O)c3ccccc3)cc2)c1	inconclusive [activator, partial curve]	–
COCCn1c(=NC(=O)/C=C/c2ccccc2Cl)sc2cc(NC(C)=O)ccc21	inconclusive [activator, single point]	–
CCN1CCC(Nc2ccnc3cc(Cl)ccc23)CC1	inconclusive [activator, single point]	–
CN(C)c1ccc(-c2cccc(C3CC=CC4C3C(=O)N(Cc3ccccc3)C4c3ccc(C(F)(F)F)cc3)c2)cc1 (stereo not drawn)	inconclusive [inhibitor, partial curve]	–
Cc1cc(C)n(-c2nc3ccccc3nc2N2CCCCCC2)n1	inconclusive [activator, partial curve]	–
Clc1cccc(Sc2ccc(-c3ccccn3)s2)c1	inconclusive [activator, single point]	–
CCOc1ccc(N=c2cc(-c3ccc(OC)cc3)oc3ccccc23)cc1	inconclusive [inhibitor, single point]	–
COc1cccc(OC)c1NC(=O)c1nc2c(nnn2Cc2ccccc2Cl)c(=O)[nH]1	inactive	–

SMILES	Potency	activity, negative = inhibition
COc1cccc(C2=Nn3c(nnc3-c3cccc(OC)c3OC)SC2)c1	inactive	–
Cc1cc(C)c(C#N)c(SCc2cn3c(C)cccc3n2)n1	inactive	–
COCCCNC(=O)c1c(N)n(-c2cccc(S(N)(=O)=O)c2)c2nc3ccccc3nc12	inconclusive [activator, partial curve]	–
Cc1cc(C)cc(-n2c3nc4ccccc4nc3c3c(=O)n(Cc4ccco4)cnc32)c1	inactive	–
COc1ccc(N/C=C2/CCCCC2=O)cc1	inactive	–
COc1ccc2c(c1OC)C(=O)OC2Nc1nc(-c2cc3cc(Br)ccc3oc2=O)cs1 (stereo not drawn)	inconclusive [activator, partial curve, poor fit]	–
Cc1ccc(S(=O)(=O)c2ccc(Oc3cccc(C)c3)cc2)cc1	inconclusive [activator, partial curve]	–
CC(=O)OC1CCC23C(=O)OC45CCC(C6=CC(=O)OC6)C4(C)CCC2C5CCC3(O)C1 (stereo not drawn)	inactive	–
COc1ccc(-c2nc(C#N)c(NCc3ccccc3Cl)o2)cc1	inactive	–
C/C(=N\Nc1nc(N)cc(Cl)n1)c1ccc(Cl)c(Cl)c1	inconclusive [inhibitor, single point]	–
O=[N+]([O-])c1cccc(N/N=C/c2cccc3ccccc23)c1	inconclusive [inhibitor, single point]	–
Cc1ccccc1NC(=S)NNc1ncc(C(F)(F)F)cc1Cl	inactive	–
Cc1c(C(=O)O)cccc1-n1c(C)cc(/C=N/Nc2ccc([N+](=O)[O-])cn2)c1C	inconclusive [inhibitor, single point]	–
CCOC(=O)c1c(NC(=S)Nc2ccc(OCC)cc2)sc2c1CCN(C)C2	inactive	–
CCCOc1cc(N)ccc1C(=O)OCCN(CC)CC	inactive	–
COc1ccc(/C=N/N=C2/NC(=O)C(CC(=O)O)S2)cc1OCc1ccccc1Cl (stereo not drawn)	inconclusive [inhibitor, single point]	–
Cc1cccc(-c2nc(C#N)c(N3CCCCCC3)o2)c1	inconclusive [inhibitor, single point]	–
Cc1cc(C(=O)COC(=O)c2cc(O)c3ccccc3c2O)c(C)n1CC1CCCO1 (stereo not drawn)	inconclusive [inhibitor, single point]	–
CCO[C@@H]1OC(C(N)=O)=C[C@H](c2ccccc2)[C@H]1CCCO	inconclusive [activator, partial curve, poor fit]	–
Cc1ccc(-c2cc(C(=O)NCc3ccco3)c3ccccc3n2)o1	inconclusive [inhibitor, single point]	–
CCOC(=O)C1=C(C)OC(N)=C(C#N)C1c1cccs1 (stereo not drawn)	inconclusive [inhibitor, single point]	–
C=C(C)[C@H]1O[C@H]2CC[C@@]3(C)[C@@](O)(CC[C@H]4[C@@H]5OC(C)(C)[C@H]6C[C@@H]7C(=C)Cc8c(Cl)cc9[nH]c(c5c9c8[C@@]76O)[C@@]43C)[C@]23O[C@@H]3[C@H]1O	inconclusive [inhibitor, single point]	–
